Common to all, as to test: protein-binding microarray (PBM)
Common to all, as to details: PBM: ~300 nM protein, 6 mM HEPES pH 7.8, 80 mM KCl, 0.5 mM EDTA, 0.5 mM EGTA, 6% glycerol, 35 ng/ul poly-dIdC, 1% milk, 1 h, room temperature; Ap Aiptasia and Nv Nematostella (sea anemones) / Co Capsaspora / Aq Amphimedon (sponge) / Dm Drosophila / Hu human; RHD is the Rel homology domain; high values mean tight binding; most listed sequences are background and not binding sites; double strand, one strand shown

One experiment addresses T1, GST-Ap-NF-kB RHD (UniProt A0A913YAJ5).
T1 sequence: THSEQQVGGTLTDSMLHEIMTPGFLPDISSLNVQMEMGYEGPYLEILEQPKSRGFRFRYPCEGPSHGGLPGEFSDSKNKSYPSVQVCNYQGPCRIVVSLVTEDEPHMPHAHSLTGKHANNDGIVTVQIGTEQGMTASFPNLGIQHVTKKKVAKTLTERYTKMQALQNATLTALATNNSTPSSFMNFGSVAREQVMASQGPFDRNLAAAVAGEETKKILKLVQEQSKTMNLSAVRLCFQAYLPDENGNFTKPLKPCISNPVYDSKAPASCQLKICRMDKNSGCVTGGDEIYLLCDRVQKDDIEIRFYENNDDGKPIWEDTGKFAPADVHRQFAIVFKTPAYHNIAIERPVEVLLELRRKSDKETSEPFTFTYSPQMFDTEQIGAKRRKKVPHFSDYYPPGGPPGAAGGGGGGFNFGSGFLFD

Experiment [1] concerns the target T2, GST-Nv-NF-kB (Cys allele) (UniProt E5G601).
T2 sequence: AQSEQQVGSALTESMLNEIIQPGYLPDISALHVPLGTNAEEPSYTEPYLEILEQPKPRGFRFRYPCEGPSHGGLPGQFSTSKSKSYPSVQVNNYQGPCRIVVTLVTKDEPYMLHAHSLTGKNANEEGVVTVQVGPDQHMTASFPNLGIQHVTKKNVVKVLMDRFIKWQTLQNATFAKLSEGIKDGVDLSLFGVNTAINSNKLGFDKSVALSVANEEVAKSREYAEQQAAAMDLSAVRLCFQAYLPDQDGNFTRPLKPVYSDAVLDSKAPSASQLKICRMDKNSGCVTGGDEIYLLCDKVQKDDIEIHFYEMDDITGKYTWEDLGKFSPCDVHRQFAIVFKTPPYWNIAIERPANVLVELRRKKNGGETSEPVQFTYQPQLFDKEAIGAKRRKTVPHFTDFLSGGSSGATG

Another experiment concerns the target T3, GST-Co-NF-kB (UniProt F1ARL5).
T3 sequence: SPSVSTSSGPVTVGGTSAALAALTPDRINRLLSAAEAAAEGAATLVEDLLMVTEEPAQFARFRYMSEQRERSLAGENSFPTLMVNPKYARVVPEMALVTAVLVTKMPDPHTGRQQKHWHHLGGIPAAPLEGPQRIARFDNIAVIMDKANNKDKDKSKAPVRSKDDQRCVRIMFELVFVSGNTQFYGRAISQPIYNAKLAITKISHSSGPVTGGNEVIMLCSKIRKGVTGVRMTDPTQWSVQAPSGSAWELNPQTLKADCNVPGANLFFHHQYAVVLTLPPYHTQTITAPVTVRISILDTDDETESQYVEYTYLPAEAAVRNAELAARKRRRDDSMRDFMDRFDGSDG

In a further experiment the target is T4, GST-Dm-Relish (UniProt Q94527).
T4 sequence: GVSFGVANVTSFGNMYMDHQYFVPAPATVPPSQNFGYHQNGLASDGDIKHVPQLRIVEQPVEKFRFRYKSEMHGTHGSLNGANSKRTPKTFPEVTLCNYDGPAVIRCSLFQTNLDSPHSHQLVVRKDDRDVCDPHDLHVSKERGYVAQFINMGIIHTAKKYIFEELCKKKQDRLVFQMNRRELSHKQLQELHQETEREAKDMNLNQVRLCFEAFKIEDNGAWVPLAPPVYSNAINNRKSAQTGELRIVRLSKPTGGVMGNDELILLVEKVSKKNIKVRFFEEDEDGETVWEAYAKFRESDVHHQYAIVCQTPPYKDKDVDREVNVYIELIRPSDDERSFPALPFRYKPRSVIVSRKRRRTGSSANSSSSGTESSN

Only a part is listed here, and it is no random draw. The list includes weakly bound sequences.

In the case of “CCGATTAACATCACGGACTCTCCTGATGTTAATCGGGTCTTGATTCGCTTGACGCTGCTG”, the binding signal with GST-Ap-NF-kB RHD was 0.0521 z-score; in experiment [1] it was -0.387 z-score; with GST-Co-NF-kB, 0.0113 z-score; in the experiment with GST-Dm-Relish, 0.0749 z-score.

Take “CCGATTAACATCACACCCCAACATGATGTTAATCGGGTCTTGATTCGCTTGACGCTGCTG”: the binding signal in the experiment with GST-Ap-NF-kB RHD is 1.38 z-score; in experiment [1] it was 0.335 z-score; with GST-Co-NF-kB, 2.16 z-score; with GST-Dm-Relish, 0.447 z-score.

Regarding “CCGATTAACATCATTTATCCCGGTGATGTTAATCGGGTCTTGATTCGCTTGACGCTGCTG”, the binding signal with GST-Ap-NF-kB RHD turned out to be 1.16 z-score; in experiment [1], 0.544 z-score; in the experiment with GST-Dm-Relish it was 1.77 z-score.

“CCGATTAACATCAACGTGGGGCGTGATGTTAATCGGGTCTTGATTCGCTTGACGCTGCTG”: the binding signal with GST-Ap-NF-kB RHD worked out at 1.07 z-score; in experiment [1], 1.14 z-score; with GST-Dm-Relish it was 0.648 z-score.

As to “CCGATTAACATCAAGGGGACTTCTGATGTTAATCGGGTCTTGATTCGCTTGACGCTGCTG”, the binding signal came to 7.92 z-score with GST-Ap-NF-kB RHD, 7.59 z-score in experiment [1], 2.41 z-score with GST-Co-NF-kB and 7.45 z-score with GST-Dm-Relish.

With “CCGATTAACATCAGGGGAATTCATGATGTTAATCGGGTCTTGATTCGCTTGACGCTGCTG”, the binding signal with GST-Ap-NF-kB RHD amounted to 9.45 z-score; in experiment [1] it was 10.8 z-score; with GST-Dm-Relish, 7.6 z-score.

“CCGATTAACATCAAATTCCCAGTTGATGTTAATCGGGTCTTGATTCGCTTGACGCTGCTG”: the binding signal stood at 1.52 z-score with GST-Ap-NF-kB RHD, 3.74 z-score in experiment [1] and 4.29 z-score with GST-Dm-Relish.

Turning to “CCGATTAACATCACCAAATTCCCTGATGTTAATCGGGTCTTGATTCGCTTGACGCTGCTG”, the values for the binding signal (with GST-Ap-NF-kB RHD; in experiment [1]; with GST-Dm-Relish) were 4.1 z-score, 4.67 z-score and 4.02 z-score, respectively.

For the sequence “CCGATTAACATCAACGGAAATTCTGATGTTAATCGGGTCTTGATTCGCTTGACGCTGCTG”, the binding signal was 0.646 z-score with GST-Ap-NF-kB RHD, -1.2 z-score in experiment [1] and 0.757 z-score with GST-Dm-Relish.

Consider “CCGATTAACATCAGGACTCTCCCTGATGTTAATCGGGTCTTGATTCGCTTGACGCTGCTG”, for which the binding signal in the experiment with GST-Ap-NF-kB RHD is 3.59 z-score; in experiment [1], 5.02 z-score; with GST-Dm-Relish, 2.07 z-score.

On to “CCGATTAACATCAGGGGGGACAATGATGTTAATCGGGTCTTGATTCGCTTGACGCTGCTG”, for which the binding signal with GST-Ap-NF-kB RHD was 4.56 z-score; in experiment [1] it was 4.19 z-score; with GST-Co-NF-kB it was 6.09 z-score; in the experiment with GST-Dm-Relish, 2.95 z-score.

For “CCGATTAACATCAAAAGTTTCCCTGATGTTAATCGGGTCTTGATTCGCTTGACGCTGCTG”, the binding signal with GST-Ap-NF-kB RHD amounted to 5.05 z-score; in experiment [1], 7.19 z-score; with GST-Dm-Relish, 4.85 z-score.

For the sequence “CCGATTAACATCAGGATTATCCCTGATGTTAATCGGGTCTTGATTCGCTTGACGCTGCTG”, the values for the binding signal (in the experiment with GST-Ap-NF-kB RHD; in experiment [1]; with GST-Dm-Relish) were 2.26 z-score, 2.9 z-score and 0.85 z-score, respectively.

Turning to “CCGATTAACATCAAGGGATTCCCTGATGTTAATCGGGTCTTGATTCGCTTGACGCTGCTG”, the binding signal in the experiment with GST-Ap-NF-kB RHD is 6.28 z-score; in experiment [1], 5.98 z-score; with GST-Dm-Relish, 9.45 z-score.

“CCGATTAACATCAGAAATTGCCCTGATGTTAATCGGGTCTTGATTCGCTTGACGCTGCTG”: the binding signal with GST-Ap-NF-kB RHD stood at 0.63 z-score; in experiment [1], 1.33 z-score; in the experiment with GST-Co-NF-kB, 0.272 z-score; with GST-Dm-Relish, 0.377 z-score.

Take “CCGATTAACATCAAATTTCCGGGTGATGTTAATCGGGTCTTGATTCGCTTGACGCTGCTG”: the binding signal with GST-Ap-NF-kB RHD was 0.808 z-score; in experiment [1] it was -0.125 z-score; in the experiment with GST-Dm-Relish, 0.816 z-score.

As to “CCGATTAACATCAGAAATACCCCTGATGTTAATCGGGTCTTGATTCGCTTGACGCTGCTG”, the binding signal was found to be 6.58 z-score with GST-Ap-NF-kB RHD, 6.99 z-score in experiment [1] and 4.99 z-score in the experiment with GST-Dm-Relish.

In the case of “CCGATTAACATCAGGGGGAACCCTGATGTTAATCGGGTCTTGATTCGCTTGACGCTGCTG”, the binding signal with GST-Ap-NF-kB RHD was found to be 8.64 z-score; in experiment [1], 7.75 z-score; in the experiment with GST-Dm-Relish, 9.93 z-score.

Turning to “CCGATTAACATCAGTACGGGAAATGATGTTAATCGGGTCTTGATTCGCTTGACGCTGCTG”, the binding signal in the experiment with GST-Ap-NF-kB RHD came to 1.79 z-score; in experiment [1] it was 3.11 z-score; in the experiment with GST-Co-NF-kB, 2.65 z-score; with GST-Dm-Relish, 0.869 z-score.

Take “CCGATTAACATCACGGGGAATTCTGATGTTAATCGGGTCTTGATTCGCTTGACGCTGCTG”: the binding signal in the experiment with GST-Ap-NF-kB RHD is 9.62 z-score; in experiment [1], 10.1 z-score; with GST-Dm-Relish, 8.15 z-score.

On to “CCGATTAACATCAAGAACCCCCGTGATGTTAATCGGGTCTTGATTCGCTTGACGCTGCTG”, for which the values for the binding signal in the experiment with GST-Ap-NF-kB RHD and with GST-Co-NF-kB were 6.68 z-score and 3.25 z-score, respectively.

As for “CCGATTAACATCAGGCAAATCCCTGATGTTAATCGGGTCTTGATTCGCTTGACGCTGCTG”, the binding signal was found to be 1.95 z-score with GST-Ap-NF-kB RHD and 0.285 z-score in the experiment with GST-Co-NF-kB.

Consider “CCGATTAACATCAGGAGTATCCCTGATGTTAATCGGGTCTTGATTCGCTTGACGCTGCTG”, for which the binding signal was 0.653 z-score in the experiment with GST-Ap-NF-kB RHD, 0.77 z-score in experiment [1] and 0.343 z-score with GST-Dm-Relish.

With “CCGATTAACATCACTCTTTTCCCTGATGTTAATCGGGTCTTGATTCGCTTGACGCTGCTG”, the binding signal with GST-Ap-NF-kB RHD came to 2.32 z-score; in experiment [1], 3.09 z-score; with GST-Dm-Relish it was 0.511 z-score.

Turning to “CCGATTAACATCAGGGGGGTTAATGATGTTAATCGGGTCTTGATTCGCTTGACGCTGCTG”, the binding signal amounted to 4.64 z-score in the experiment with GST-Ap-NF-kB RHD and 3.92 z-score with GST-Co-NF-kB.

As for “CCGATTAACATCAGGGAAAGGTATGATGTTAATCGGGTCTTGATTCGCTTGACGCTGCTG”, the binding signal was determined as 2.16 z-score with GST-Ap-NF-kB RHD, 3.44 z-score in experiment [1] and 0.32 z-score with GST-Dm-Relish.

With “CCGATTAACATCACGGGGATTCCTGATGTTAATCGGGTCTTGATTCGCTTGACGCTGCTG”, the results for the binding signal (in the experiment with GST-Ap-NF-kB RHD; in experiment [1]; with GST-Dm-Relish) were 9.77 z-score, 9.58 z-score and 10.6 z-score, respectively.

As for “CCGATTAACATCAAAATTTTTCCTGATGTTAATCGGGTCTTGATTCGCTTGACGCTGCTG”, the binding signal with GST-Ap-NF-kB RHD stood at 0.427 z-score; in experiment [1] it was 0.935 z-score; in the experiment with GST-Dm-Relish, 2.86 z-score.

On to “CCGATTAACATCAGGAATCTACCTGATGTTAATCGGGTCTTGATTCGCTTGACGCTGCTG”, for which the binding signal was 0.929 z-score in the experiment with GST-Ap-NF-kB RHD and -0.308 z-score with GST-Co-NF-kB.

For “CCGATTAACATCAGAAGTTCCCATGATGTTAATCGGGTCTTGATTCGCTTGACGCTGCTG”, the binding signal stood at 2.2 z-score with GST-Ap-NF-kB RHD, 2.3 z-score in experiment [1] and 3.27 z-score in the experiment with GST-Dm-Relish.

On to “CCGATTAACATCAGGGGGAATAATGATGTTAATCGGGTCTTGATTCGCTTGACGCTGCTG”, for which the binding signal with GST-Ap-NF-kB RHD came out at 7.08 z-score; in the experiment with GST-Co-NF-kB, 10.1 z-score.
